The structures appear in SMILES notation. The whole screen tested about 310,000 compounds, of which about 2,200 (0.71%) showed an effect of 50% or more. Effects have a minus sign here. The list shows a part of the results.

Chain of human ether-à-go-go-related gene (hERG) potassium channel (Q12809 whole entry, looked up): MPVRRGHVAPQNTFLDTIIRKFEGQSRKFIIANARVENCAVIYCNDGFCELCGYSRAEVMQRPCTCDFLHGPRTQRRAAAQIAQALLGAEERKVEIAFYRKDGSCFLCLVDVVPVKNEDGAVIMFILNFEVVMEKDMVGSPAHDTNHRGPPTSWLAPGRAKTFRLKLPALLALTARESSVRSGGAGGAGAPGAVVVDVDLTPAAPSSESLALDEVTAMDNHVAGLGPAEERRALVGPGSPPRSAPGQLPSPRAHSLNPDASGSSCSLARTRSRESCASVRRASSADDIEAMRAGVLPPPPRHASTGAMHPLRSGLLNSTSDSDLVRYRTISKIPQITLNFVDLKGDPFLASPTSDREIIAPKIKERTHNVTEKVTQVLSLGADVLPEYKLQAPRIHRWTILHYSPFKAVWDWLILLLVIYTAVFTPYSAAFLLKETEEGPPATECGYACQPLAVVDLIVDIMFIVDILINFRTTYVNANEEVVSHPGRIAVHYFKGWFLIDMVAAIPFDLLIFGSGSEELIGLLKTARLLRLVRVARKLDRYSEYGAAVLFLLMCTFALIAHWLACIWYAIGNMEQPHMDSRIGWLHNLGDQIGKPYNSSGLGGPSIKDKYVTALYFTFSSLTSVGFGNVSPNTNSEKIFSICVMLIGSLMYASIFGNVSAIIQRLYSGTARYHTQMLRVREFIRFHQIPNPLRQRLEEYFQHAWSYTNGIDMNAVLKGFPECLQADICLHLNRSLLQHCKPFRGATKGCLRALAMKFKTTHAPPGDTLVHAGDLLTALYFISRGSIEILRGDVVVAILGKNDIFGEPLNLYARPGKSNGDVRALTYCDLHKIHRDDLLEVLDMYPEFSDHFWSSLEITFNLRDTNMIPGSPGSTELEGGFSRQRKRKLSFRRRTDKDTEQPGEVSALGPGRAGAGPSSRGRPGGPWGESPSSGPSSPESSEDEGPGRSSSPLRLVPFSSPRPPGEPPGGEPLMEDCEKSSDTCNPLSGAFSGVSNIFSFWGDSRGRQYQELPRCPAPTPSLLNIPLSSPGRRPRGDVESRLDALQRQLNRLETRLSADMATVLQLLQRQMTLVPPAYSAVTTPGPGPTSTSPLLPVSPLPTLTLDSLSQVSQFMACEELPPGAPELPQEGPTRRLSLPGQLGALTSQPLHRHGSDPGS

This test has as its target human ether-à-go-go-related gene (hERG) potassium channel (human, UniProt Q12809). The test can be described thus: primary screen, population patch clamp on CHO cells stably expressing hERG.
`COc1ccc(CCNC(=O)C(=O)NCC2OCCN2S(=O)(=O)c2ccc(OC)c(C)c2)cc1` (centres unmarked): the “hERG current change (%, negative = inhibition) at 1uM” value is recorded as 6.74%.
For `CCOC(=O)C1=C(COC(=O)CCC(=O)c2ccc(C)cc2)NC(=O)NC1C` (centres unmarked), the “hERG current change (%, negative = inhibition) at 1uM” value is 13.8%.
For `COc1ccc(N2CCN(C(=O)c3cc(=O)[nH]c4ccccc34)CC2)cc1`, the “hERG current change (%, negative = inhibition) at 1uM” value was determined as 6.4%.
The same measure for `O=C(CN1CCN(c2ccc(Cl)cc2)CC1)c1ccccc1`: 6.95%; for `COc1cc(C(=O)N/N=C(\C)Cc2ccccc2)cc(OC)c1OC`: 18.3%.
Regarding `O=C(CSc1nnc(Cn2nnc3ccccc32)o1)Nc1cccc(Cl)c1`, the “hERG current change (%, negative = inhibition) at 1uM” value is reported as 7.59%.
The figure for `O=C(COC(=O)c1ccc(Cl)c([N+](=O)[O-])c1)NC1CCCC1` is 14%; for `COc1ccc(N2C(=O)C3CCCN3C2c2cc(OC)c(OC)c(OC)c2)cc1` (centres unmarked) it is 3.17%.
The same measure for `O=C(O)c1ccc(CSc2ccccn2)cc1`: 10.5%; for `CC(C)(C)c1ccc(NC(=O)C2CCCN(c3cnccn3)C2)cc1` (centres unmarked): 10.2%.
The same measure for `Cc1ccc(S(=O)(=O)N2CCCCC2)cc1C(=O)Nc1ccccn1`: 15.4%.
As for `CCn1c(SCc2nc3ccccc3[nH]2)nnc1-c1cnccn1`, the “hERG current change (%, negative = inhibition) at 1uM” value was 5.33%.
The figure for `N/C(CC(=O)Nc1ccc(F)cc1)=N\O` is 2.79%; for `CCc1cc2c(=O)oc(-c3ccccc3F)nc2s1` it is 15.1%; for `COc1ccc(S(=O)(=O)NCc2ccc3c(c2)OCO3)cc1C` it is -8.2%.
The same measure for `CSc1nnc(C)c(=O)n1COC(=O)COc1ccc(F)cc1`: -6.14%; for `COc1ccc(C)cc1NC(=O)NNC(=O)C1CCC(C(C)(C)C)CC1` (centres unmarked): 3.34%.
The figure for `CSC1=N/C(=C\c2ccccc2)C(=O)N1C` is -0.387%; for `Cc1cc(N/N=C/c2ccc(O)c(C)c2O)nc(-c2ccccc2O)n1` it is 9.16%; for `O=C(Nc1nnc(-c2ccccn2)o1)c1cccc(Cl)c1` it is 3.45%.
Take `CC1(C)CC(=O)C(C=NC(CCC(N)=O)C(=O)O)=C(O)C1` (centres unmarked): the “hERG current change (%, negative = inhibition) at 1uM” value is 4.28%.
The same measure for `Cc1cc(C)c(NC(=O)Nc2ccccc2)c(Cl)c1`: 0.0154%; for `O=C(Nc1ccccn1)C(NS(=O)(=O)c1cccc2nsnc12)c1ccccc1` (centres unmarked): 6.27%.
The same measure for `O=C(NNS(=O)(=O)c1ccccc1[N+](=O)[O-])c1cccnc1`: 7.44%; for `COc1cc(-c2cc3nc(C)c(C)c(=O)n3[nH]2)cc(OC)c1OC`: -13.9%; for `O=C(O)Cn1c(SCCOc2ccc(Cl)cc2)nc2ccccc21`: 17.4%.
The figure for `Cc1n[nH]c(C)c1Cc1c(F)cccc1Cl` is 8.49%; for `CN(C)S(=O)(=O)c1cc(NC(=O)CN2C(=O)NC3(CCCc4ccccc43)C2=O)ccc1Cl` (centres unmarked) it is 0.0113%.
For `Cc1ccc(NS(=O)(=O)c2cccc(C(=O)N3CCCCCC3)c2)cc1`, the “hERG current change (%, negative = inhibition) at 1uM” value worked out at 10.6%.
The same measure for `CS(=O)(=O)c1ccc(Cl)c(NC(=O)CN2CCCC2c2ccc3c(c2)OCCCO3)c1` (centres unmarked): 2.65%; for `COc1ccc(CC(NC(C)=O)C(=O)NC2CCN(C(=O)c3ccc([N+](=O)[O-])cc3)CC2)cc1OC` (centres unmarked): 4.24%.
The figure for `CCN(CC)S(=O)(=O)c1cccc(C(=O)Nc2ccc(C#N)cc2)c1` is -74%.
With `CC(C)c1ccccc1OCC(=O)NCC(c1cccs1)N1CCOCC1` (centres unmarked), the “hERG current change (%, negative = inhibition) at 1uM” value is -8.48%.
`CC12CCC(c3c1nc1ccccc1[n+]3[O-])C2(C)C` (centres unmarked): the “hERG current change (%, negative = inhibition) at 1uM” value worked out at 0.975%.
The same measure for `CC1CCCC(NC(=O)c2ccncc2)C1C` (centres unmarked): 9.58%; for `COC(=O)CN1C(=O)[C@H]2[C@@H](c3ccc(C)o3)N3C(=O)CN(CC4CC4)C(=O)[C@@]3(Cc3ccccc3)[C@H]2C1=O`: -17.4%.
The same measure for `O=C(NCc1ccccn1)c1cnc2sccn2c1=O`: 9.6%.
For the compound `N#CCCN1CCN(C2=NC(=O)C(=C3CCCCC3)S2)CC1`, the “hERG current change (%, negative = inhibition) at 1uM” value is -1.77%.
The figure for `CCOC(=O)c1c(C(F)(F)F)nc2ncccn12` is 10.7%; for `COc1cccc(CN2CCNC(=O)C2CC(=O)N(C)CCc2ccccn2)c1` (centres unmarked) it is 5.15%; for `Cc1ccc(S(=O)(=O)c2cc3ccc(O)cc3oc2=O)cc1C` it is 9.17%.
The same measure for `COc1cc(NS(=O)(=O)c2ccc(NC(=O)COc3ccccc3C)cc2)nc(OC)n1`: 13.8%; for `Cc1cc2cc(CN(Cc3ccc4c(c3)OCO4)C(=O)c3cnccn3)c3nnnn3c2cc1C`: 2.1%; for `CCOCCCNC(=O)c1ccc(NC(C)=O)cc1`: -8.86%.

Values taken from article PMC4336329 (PLoS ONE, 2015).
